Experimental data reported in US4161522A, “Method for blocking allergic responses” (The Regents of the University of California, priority 1978, dated 1979).
“And” between values parts separate entries of the source, which are not always exact repeats. Identical values can stand only once. Not every detail of the peptide structures is certain; ends, links or a residue may be inferred. Bridge positions count the residues as written; N and C are the ends. Peptide text beside a SMILES is read from it. I, II: the chains in the order shown.

How the values were obtained:
[1] = test system: Wil-2WT human lymphoblastoid tissue culture cell line; test: Blocking of binding of I125-tagged IgE to Wil-2WT cells in vitro; settings: for blocking effect / activity, single trials: two trials, each value one trial
Experimental: In this regard, the 8 carbon chain acyl substituted peptide, octanoyl-Asp-Ser-Asp-Pro-Arg, as well as the […] acyl substituted peptide, acetoyl-Asp-Ser-Asp-Pro-Arg, were prepared by the method outlined in Example 10 above. These peptides were tested, in vitro, for their blocking ability with respect to the Wil-2WT human lymphoblastoid tissue culture cell line as follows.
Wil-2WT cells in culture medium were centrifuged at about 2000 RPM. The separated cells were mixed with minimal essential medium (MEM) and recentrifuged at 2000 RPM. The supernatent was decanted off completely and the residual cells were suspended in MEM+3% human serum albumin (HSA). The cell suspension was divided into suitable aliquots in reaction tubes. Blanks and control reaction tubes were also prepared. To various of the cell suspension tubes, were added known amount of Sha Myeloma E; Sha Myeloma E and octanoyl-Asp-Ser-Asp-Pro-Arg; or Sha Myeloma E and acetoyl-Asp-Ser-Asp-Pro-Arg. After mixing and standing at room temperature for approximately one hour, a known quantity of deaggregated IgE, tagged with radioactive iodine (I^125) was added to the tubes. After standing a short time, the capped tubes were mixed by slow inversion over an hour's time. All the reaction tubes were then centrifuged and the supernatent was decanted, leaving the cell pellets behind. The pellets were washed four times with phosphate buffered saline; and then finally resuspended in phosphate buffered saline. The suspension was then counted on a gamma counter in order to determine the amount of tagged IgE bound to the Wil-2WT cells.

[2] = test system: Prausnitz-Kustner (P-K) reaction; test: Prausnitz-Kustner (P-K) reaction blocking assay in human volunteers; assay type: in vivo; settings: for inhibition, individual high: highest of six individuals; for inhibition, individual high / inhibition, individual low / average % inhibition (P-K wheal): peptide approx. 6 μg/ml; for inhibition, individual high / inhibition, individual low: 0.1 ml per site; for inhibition, individual low: lowest of six individuals; for average % inhibition (P-K wheal): six individuals, 0.1 ml intradermally, 0.05 ml diluted P-K serum containing 0.2 ng IgE, versus control wheal; for "blocking" activity in P-K assay (in words): comparison among the peptides assayed
Experimental: The "blocking" activity of the polypeptides of the invention can be assayed by utilization of the classic Prausnitz-Kustner (P-K) reaction. In this classic method, a known allergic serum i.e., one that contains IgE specific for a known antigen or allergen is injected intradermally into a human volunteer. After waiting a period of time, e.g. 20 or more hours, the injected sites are then challenged with a prick or injection of a solution of an antigen that is specific for the IgE in the injected serum. Within the next 10 to 30 minutes a positive reaction is evidenced by the development of a wheal (and flare) at the injected site. The more extensive the diameter of the wheal the more intensive is the allergic reaction. That is, a more extensive wheal indicates a greater release of histamine into the tissues at the injected site. Conversely, the development of wheals of lesser diameter or the absence of any wheal at all indicates diminished allergic reaction and/or no allergic reaction at all. The P-K reaction as noted above is a classic test and is universally known and utilized by allergists.
All of these assays were performed using a single proven safe P-K donor serum that contains IgE specific for guinea pig allergens.
Peptide solutions were either injected intradermally 1 to 24 hours prior to the P-K serum, or mixed with dilutions of the P-K serum for simultaneous injection. Initial tests were performed using the P-K serum at from 1:4 to 1:200 dilutions. Further studies were run at a fixed P-K dilution of 1:32 while the invention peptide solutions were varied to contain from about 1 mM to […] of the peptide being tested. Injected sites on the volunteers were challenged by prick-puncture of guinea pig BCA 1:40 w/v (purchased from Berkeley Biologicals, Inc.).
Human volunteers were chosen who had serum IgE levels below 100 U/ml. (242 ng/ml.) which levels have been previously shown to assure successful P-K reactivity. […] P-K and skin tests were performed on the back and/or forearm. Multiple test sites of approximately 25 mm diameter were circled with a marking pen and all injections were made within the circled skin areas.
A typical sequence of events was intradermal injection of 0.1 ml. of the peptide solution or control buffered saline diluent solution; followed in 1 to 24 hours by intradermal injection of 0.05 ml. of P-K serum into each of the previously injected sites. After 20 to 24 hours had elapsed, each site was prick-punctured with the antigen solution, blotted dry in 5 minutes and measurements of the wheal and flare in both their narrowest and widest diameter were made three tiems, usually 15, 20 and 25 minutes after prick-punctures.
The results, as noted above, present the average of measurements at three time intervals, in duplicate, for each reaction in each individual, subtracted from the average control wheal measurements, and divided by the average measurement of each individual's control wheal. Control wheals in different individuals varied from 8 to 40 mm^2 with a mean of 17 mm^2. Each peptide was utilized at approximately 6 μg/ml. dilution and 0.1 ml. was injected at each site, followed by 0.05 ml. of diluted P-K serum containing 0.2 ng. of IgE. Thus, 10^-9 M of the peptide was competing with 10^-15 M of the IgE for the binding sites on mast cells, or a ratio of one IgE molecule to 10^6 peptide molecules.

wheal and flare reaction = test: Displacement of IgE: direct skin challenge in an individual sensitive to guinea pig antigens; assay type: in vivo, human; settings: single sensitive individual; for inhibition of the wheal and flare reaction: challenge at one and five hours after intradermal injection of approx. 2 nM; for wheal smaller than at buffered saline diluent site: challenge at twenty-four hours after intradermal injection of approx. 2 nM
Experimental: It has also been determined that the active polypeptides of the invention appear to have the ability to "displace" IgE from mast cells as well as to prevent the binding of the IgE to the receptors. In a single test, an individual known to have extreme sensitivity to guinea pig antigens, that is a person with a high natural concentration of guinea-pig-antigen-sensitive IgE, was injected with polypeptides in accordance with the invention, and […] reaction to guinea pig antigen was noted.
Specifically, approximately 2 nM each of Asp-Ser-Asp-Pro-Arg and Ala-Asp-Ser-Asp-Pro-Arg were each intradermally injected into 3 marked sites. For comparison, TASME, as well as a control of the buffer diluent alone, was also each injected into 3 marked sites. At one, five and twenty-four hours subsequent to the polypeptide and control injection, one of each peptide and one diluent site were prick-puncture challenged with guinea pig antigen. […] However, at the twenty-four hour challenge, the wheal at the Asp-Ser-Asp-Pro-Arg site was approximately 45% smaller; while at the Ala-Asp-Ser-Asp-Pro-Arg site, the wheal was approximately 23% smaller.

SMILES	blocking effect / activity, single trials [1]	inhibition, individual high [2]	inhibition, individual low [2]	average % inhibition (P-K wheal) [2]	also measured
C[C@H](NC(=O)[C@@H](N)CSSC[C@H](N)C(=O)N[C@@H](C)C(=O)N[C@@H](CC(N)=O)C(=O)N[C@@H](CO)C(=O)N[C@@H](CC(N)=O)C(=O)N1CCC[C@H]1C(=O)N[C@@H](CCCNC(=N)N)C(=O)O)C(=O)N[C@@H](CC(N)=O)C(=O)N[C@@H](CO)C(=O)N[C@@H](CC(N)=O)C(=O)N1CCC[C@H]1C(=O)N[C@@H](CCCNC(=N)N)C(=O)O [Dimer (f), [-Cys-Ala-Asn-Ser-Asn-Pro-Arg]2] (I: H-CANSNPR-OH / II: H-CANSNPR-OH; disulfide I:1-II:1)	9% and 12%	–	–	–	–
N=C(N)NCCC[C@H](NC(=O)[C@@H]1CCCN1C(=O)[C@@H](N)CC(=O)O)C(=O)O [Asp-Pro-Arg] (H-Asp-Pro-Arg-OH)	–	38%	0%	15%	–
C[C@H](NC(=O)[C@@H](N)CSSC[C@H](N)C(=O)N[C@@H](C)C(=O)N[C@@H](CC(=O)O)C(=O)N[C@@H](CO)C(=O)N[C@@H](CC(=O)O)C(=O)N1CCC[C@H]1C(=O)N[C@@H](CCCNC(=N)N)C(=O)O)C(=O)N[C@@H](CC(=O)O)C(=O)N[C@@H](CO)C(=O)N[C@@H](CC(=O)O)C(=O)N1CCC[C@H]1C(=O)N[C@@H](CCCNC(=N)N)C(=O)O [[-Cys-Ala-Asp-Ser-Asp-Pro-Arg]2] (I: H-CADSDPR-OH / II: H-CADSDPR-OH; disulfide I:1-II:1)	6% and 5%	–	–	–	–
N=C(N)NCCC[C@H](NC(=O)[C@@H]1CCCN1C(=O)[C@H](CC(=O)O)NC(=O)[C@H](CO)NC(=O)[C@@H](N)CC(N)=O)C(=O)O [Analogue (b), Asn-Ser-Asp-Pro-Arg] (H-NSDPR-OH)	5% and 3%	–	–	–	–
C[C@H](NC(=O)[C@H](CC(=O)O)NC(=O)[C@@H]1CCCN1)C(=O)N[C@@H](CCCNC(=N)N)C(=O)N[C@@H](Cc1c[nH]cn1)C(=O)N[C@@H](CO)C(=O)O [Pro-Asp-Ala-Arg-His-Ser] (H-PDARHS-OH)	–	–	–	–	blocking of the binding of IgE to Wil-2WT cells, highest seen ([1]; as high as, in several procedures): ≤ 28%
N=C(N)NCCC[C@H](NC(=O)[C@@H]1CCCN1C(=O)[C@H](CC(=O)O)NC(=O)[C@@H](N)CO)C(=O)O [Ser-Asp-Pro-Arg] (H-SDPR-OH)	–	50%	0%	18%	–
C[C@H](N)C(=O)N[C@@H](CC(=O)O)C(=O)N[C@@H](CO)C(=O)N[C@@H](CC(=O)O)C(=O)N1CCC[C@H]1C(=O)N[C@@H](CCCNC(=N)N)C(=O)O [Ala-Asp-Ser-Asp-Pro-Arg] (H-ADSDPR-OH)	–	–	–	–	"blocking" activity in P-K assay (in words) [2]: somewhat less activity; inhibition of the wheal and flare reaction (wheal and flare reaction): No inhibition; wheal smaller than at buffered saline diluent site (wheal and flare reaction): approximately 23%
N=C(N)NCCC[C@H](NC(=O)[C@@H]1CCCN1C(=O)[C@H](CC(N)=O)NC(=O)[C@H](CO)NC(=O)[C@@H](N)CC(N)=O)C(=O)O [Analogue (c), Asn-Ser-Asn-Pro-Arg] (H-NSNPR-OH)	4% and 2%	–	–	–	–
N=C(N)NCCC[C@H](NC(=O)[C@@H]1CCCN1C(=O)[C@H](CC(N)=O)NC(=O)[C@H](CO)NC(=O)[C@@H](N)CC(=O)O)C(=O)O [Analogue (a), Asp-Ser-Asn-Pro-Arg] (H-DSNPR-OH)	5% and 6%	–	–	–	–
C[C@H](NC(=O)[C@H](CCC(=O)O)NC(=O)[C@@H](NC(=O)[C@@H](N)CC(=O)O)[C@@H](C)O)C(=O)N[C@@H](CCCNC(=N)N)C(=O)O [Asp-Thr-Glu-Ala-Arg, reference compound] (H-DTEAR-OH)	–	80%	30%	58%	"blocking" activity in P-K assay (in words) [2]: high activity
C[C@H](NC(=O)[C@@H](N)CSSC[C@H](N)C(=O)N[C@@H](C)C(=O)N[C@@H](CC(=O)O)C(=O)N[C@@H](CO)C(=O)N[C@@H](CC(N)=O)C(=O)N1CCC[C@H]1C(=O)N[C@@H](CCCNC(=N)N)C(=O)O)C(=O)N[C@@H](CC(=O)O)C(=O)N[C@@H](CO)C(=O)N[C@@H](CC(N)=O)C(=O)N1CCC[C@H]1C(=O)N[C@@H](CCCNC(=N)N)C(=O)O [Dimer (d), [-Cys-Ala-Asp-Ser-Asn-Pro-Arg]2] (I: H-CADSNPR-OH / II: H-CADSNPR-OH; disulfide I:1-II:1)	0% and 2%	–	–	–	blocking ability on Wil-2WT cells (in words) [1]: very low, if any, activity
N=C(N)NCCC[C@H](NC(=O)[C@@H]1CCCN1C(=O)[C@H](CC(=O)O)NC(=O)[C@H](CO)NC(=O)[C@@H](N)CC(=O)O)C(=O)O [Asp-Ser-Asp-Pro-Arg] (H-DSDPR-OH)	–	89%	60%	72%	inhibition of the wheal and flare reaction (wheal and flare reaction): No inhibition; wheal smaller than at buffered saline diluent site (wheal and flare reaction): approximately 45%
